Publication PMC9911399, “Two distinct binding modes provide the RNA-binding protein RbFox with extraordinary sequence specificity”
Changes are numbered by the printed parent chain; changes in the protein carry UniProt numbers. The list shows a part of the results.

T1: RBFOX1 RRM RbFoxmut (Fox-RRM*) (Homo sapiens, UniProt Q9NWB1 109-208, R118D;E147R;N151S;E152T)
T1 sequence: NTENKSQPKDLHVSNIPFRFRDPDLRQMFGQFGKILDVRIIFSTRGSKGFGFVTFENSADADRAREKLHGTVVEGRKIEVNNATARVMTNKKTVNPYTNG

B1: CAACAGC (DNA:RNA)
RNA: GGGAGACCGGAAUUCAGAUUGUCCCAACAGCUUAAAUCCCGUCGUAGCCACCA
DNA 1: CAATCTGAATTCCGGTCTCCC
DNA 2: TGGTGGCTACGACGGGATT
B2: UAACGGA (DNA:RNA)
RNA: B1 RNA with C25U, A29G, C31A
DNA 1: CAATCTGAATTCCGGTCTCCC
DNA 2: TGGTGGCTACGACGGGATT
B3: CAACGCG (DNA:RNA)
RNA: B1 RNA with A29G, G30C, C31G
DNA 1: CAATCTGAATTCCGGTCTCCC
DNA 2: TGGTGGCTACGACGGGATT
B4: AAGUAGA (DNA:RNA)
RNA: B1 RNA with C25A, A27G, C28U, C31A
DNA 1: CAATCTGAATTCCGGTCTCCC
DNA 2: TGGTGGCTACGACGGGATT
B5: AUCAGUA (DNA:RNA)
RNA: GGGAGACCGGAAUUCAGAUUGUCCAUCAGUAUUAAAUCCCGUCGUAGCCACCA
DNA 1: CAATCTGAATTCCGGTCTCCC
DNA 2: TGGTGGCTACGACGGGATT
B6: GCUAGAU (DNA:RNA)
RNA: B5 RNA with A25G, U26C, C27U, U30A, A31U
DNA 1: CAATCTGAATTCCGGTCTCCC
DNA 2: TGGTGGCTACGACGGGATT
B7: CAUAGGC (DNA:RNA)
RNA: B1 RNA with A27U, C28A, A29G
DNA 1: CAATCTGAATTCCGGTCTCCC
DNA 2: TGGTGGCTACGACGGGATT
B8: UGGGUGG (DNA:RNA)
RNA: B1 RNA with C25U, A26G, A27G, C28G, A29U, C31G
DNA 1: CAATCTGAATTCCGGTCTCCC
DNA 2: TGGTGGCTACGACGGGATT
B9: GGGUAGG (DNA:RNA)
RNA: B1 RNA with C25G, A26G, A27G, C28U, C31G
DNA 1: CAATCTGAATTCCGGTCTCCC
DNA 2: TGGTGGCTACGACGGGATT
B10: GCGCGCU (DNA:RNA)
RNA: B5 RNA with A25G, U26C, C27G, A28C, U30C, A31U
DNA 1: CAATCTGAATTCCGGTCTCCC
DNA 2: TGGTGGCTACGACGGGATT
B11: UCAAGGC (DNA:RNA)
RNA: B1 RNA with C25U, A26C, C28A, A29G
DNA 1: CAATCTGAATTCCGGTCTCCC
DNA 2: TGGTGGCTACGACGGGATT
B12: CACAAUG (DNA:RNA)
RNA: B5 RNA with A25C, U26A, G29A, A31G
DNA 1: CAATCTGAATTCCGGTCTCCC
DNA 2: TGGTGGCTACGACGGGATT
B13: CGGGUUC (DNA:RNA)
RNA: B1 RNA with A26G, A27G, C28G, A29U, G30U
DNA 1: CAATCTGAATTCCGGTCTCCC
DNA 2: TGGTGGCTACGACGGGATT
B14: UACGUUU (DNA:RNA)
RNA: B5 RNA with A25U, U26A, A28G, G29U, A31U
DNA 1: CAATCTGAATTCCGGTCTCCC
DNA 2: TGGTGGCTACGACGGGATT
B15: CGGUAAC (DNA:RNA)
RNA: B1 RNA with A26G, A27G, C28U, G30A
DNA 1: CAATCTGAATTCCGGTCTCCC
DNA 2: TGGTGGCTACGACGGGATT
B16: AUGGCUA (DNA:RNA)
RNA: B5 RNA with C27G, A28G, G29C
DNA 1: CAATCTGAATTCCGGTCTCCC
DNA 2: TGGTGGCTACGACGGGATT
B17: GUUCAAG (DNA:RNA)
RNA: B1 RNA with C25G, A26U, A27U, G30A, C31G
DNA 1: CAATCTGAATTCCGGTCTCCC
DNA 2: TGGTGGCTACGACGGGATT
B18: AUUCGCC (DNA:RNA)
RNA: B5 RNA with C27U, A28C, U30C, A31C
DNA 1: CAATCTGAATTCCGGTCTCCC
DNA 2: TGGTGGCTACGACGGGATT
B19: CGUUUUA (DNA:RNA)
RNA: B5 RNA with A25C, U26G, C27U, A28U, G29U
DNA 1: CAATCTGAATTCCGGTCTCCC
DNA 2: TGGTGGCTACGACGGGATT
B20: CGGACUG (DNA:RNA)
RNA: B5 RNA with A25C, U26G, C27G, G29C, A31G
DNA 1: CAATCTGAATTCCGGTCTCCC
DNA 2: TGGTGGCTACGACGGGATT

biological target: T1, RBFOX1 RRM RbFoxmut (Fox-RRM*); assay: EMSA; HiTS-Eq, 1 nM pool, 10 min; buffer printed only for the single-RNA assays: 10 mM Tris pH 7.5, 150 mM NaCl, 3.4 mM EDTA, 0.001% NP-40, 30 C; conditions: tags: His6 N-terminal (pET28a); label: 5' 32P
Method in brief: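 Purified wild-type or mutant RbFox RRM at increasing concentrations was equilibrated with 1 nM of 5′-radiolabelled RNA carrying 7 randomized nucleotides for 10 min in 50 µL. Unbound RNA was separated by 8% native PAGE and sequenced. Relative association constants came from read-count changes of each RNA species compared with the control reaction, normalised to the cognate motif.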

Row | Binder | binding signal
1 | B1 | 0.053 KA relative to UGCAUGU
2 | B2 | 0.0546 KA relative to UGCAUGU
3 | B3 | 0.118 KA relative to UGCAUGU
4 | B4 | 0.132 KA relative to UGCAUGU
5 | B5 | 0.14 KA relative to UGCAUGU
6 | B6 | 0.122 KA relative to UGCAUGU
7 | B7 | 0.0883 KA relative to UGCAUGU
8 | B8 | 0.16 KA relative to UGCAUGU
9 | B9 | 0.095 KA relative to UGCAUGU
10 | B10 | 0.107 KA relative to UGCAUGU
11 | B11 | 0.0863 KA relative to UGCAUGU
12 | B12 | 0.0509 KA relative to UGCAUGU
13 | B13 | 0.169 KA relative to UGCAUGU
14 | B14 | 0.106 KA relative to UGCAUGU
15 | B15 | 0.0625 KA relative to UGCAUGU
16 | B16 | 0.195 KA relative to UGCAUGU
17 | B17 | 0.106 KA relative to UGCAUGU
18 | B18 | 0.118 KA relative to UGCAUGU
19 | B19 | 0.109 KA relative to UGCAUGU
20 | B20 | 0.353 KA relative to UGCAUGU
